Molecules are shown by their SMILES. Hit rate of the full screen: of about 52,000 compounds, about 1,700 (3.3%) were called active. Rule as the data show it: active = survival mostly below about 52% (no sharp cut-off); inactive = mostly above about 56%. The list shows a part of the results.

This test concerns Wild type. Put plainly: growth inhibition of S. aureus wild type versus tarO mutant, primary screen, teichoic acid synthesis inhibitors, RN4220, OD600 (AID 463173). As to conditions: S. aureus RN4220 wild type/DeltatarO growth, OD600, 18 h, hits give low values, screened at 18.75 µg/mL (by protocol).
Turning to `Cc1ccc(C(=O)n2nc(C)c(S(=O)(=O)N3CCOCC3)c2C)cc1`, the survival was inactive: 85%.
On to `CCCNc1ncnc2onc(C)c12`, for which the survival was inactive: 74%.
The same measure for `O=C(O)CCC1(CCC(=O)O)CCCCC1=O`: inactive: 108%; for `Cc1cc(S(=O)(=O)Nc2ccc(-c3ccc(N4CCCCC4)nn3)cc2)c(C)cc1Cl`: inactive: 133%; for `COc1cccc(-c2nn(C)c3sc(C(=O)NCCc4ccc(Cl)cc4)cc23)c1`: inactive: 86%.
Take `O=C(NCc1ccco1)C(c1ccccc1)N(Cc1ccco1)C(=O)Cn1nnc2ccccc21` (configuration not stated): the survival is inactive: 113%.
For the compound `CC(C)c1cnc2c(c1SCC(=O)Nc1ccccc1C(F)(F)F)c(=O)n(C)c(=O)n2C`, the survival was inactive: 86%.
The same measure for `Cc1ccc(CSc2nc(-c3cccs3)ccc2C#N)cc1`: inactive: 31%; for `Cc1cccc(N2CCN(c3cc(C)nc4c(-c5ccc(Cl)cc5)c(C)nn34)CC2C)c1` (configuration not stated): inactive: 74%; for `Cc1nnc(SCc2ccc(Cl)cc2)c2cc3occc3n12`: inactive: 28%.
The value for `CCOc1ccc(NC(=O)NCCCN2CCN(c3ccc(F)cc3)CC2)cc1` was inactive: 67%.
The value for `Cc1cccc(C)c1NC(=O)C(NS(=O)(=O)c1ccc2c(c1)CCC(=O)N2)c1ccccc1` (configuration not stated) was inactive: 74%; that for `Cc1c2cnn(-c3ccccc3)c(=O)c2c(C)n1CCCC(=O)Nc1cc(F)ccc1F` was inactive: 78%.
As to `COC(=O)c1nc2n(n1)C(c1cccc(Cl)c1)C(C(=O)Nc1ccccc1OC)=C(C)N2` (configuration not stated), the survival is inactive: 140%.
The value for `O=CNC1CCCc2c1[nH]c1ccccc21` (configuration not stated) was inactive: 110%; that for `CCOc1ccc(NC(=O)CSc2ncc3c(n2)-c2ccc(Cl)cc2N(Cc2ccccc2)S3(=O)=O)cc1` was inactive: 80%.
The value for `COc1ccc(-c2nc3sc(CCNC(=O)c4cc(OC)c(OC)c(OC)c4)c(C)n3n2)cc1` was inactive: 72%; that for `COc1ccc(N2CCN(S(=O)(=O)c3ccc4oc(=O)c5ncn(C)c5c4c3)CC2)cc1` was inactive: 80%; that for `O=C(CSc1nc2ccccc2nc1Cc1ccc(Cl)cc1)N1CCc2ccccc21` was inactive: 92%.
Turning to `Cc1ccc(-c2nc(C)c(CCNC(=O)c3ccco3)s2)cc1`, the survival is inactive: 99%.
As for `CCc1ccc(CNC(=O)CN2C(=O)c3cccnc3Oc3ccc(Cl)cc32)cc1`, the survival was inactive: 73%.
The value for `CCN(c1cccc(C)c1)S(=O)(=O)c1nnc(NC(=O)C2CCCCC2)s1` was inactive: 84%.
The value for `O=C(CSC1=Nc2ccccc2C2=NC(CC(=O)NC3CCCCC3)C(=O)N12)Nc1ccc(F)cc1` (configuration not stated) was inactive: 71%; that for `Cc1ccc(C)c(N2CCN(S(=O)(=O)c3cc(Br)cc4c3N(C(=O)C3CC3)CC4)CC2)c1` was inactive: 134%; that for `COc1ccc(C)cc1NC(=O)c1oc2ccc(S(=O)(=O)N3CCCCC3)cc2c1C` was inactive: 66%.
`Cc1ccc(SCc2[nH]nc3c2C(c2ccoc2)C(C#N)=C(N)O3)cc1` (configuration not stated): the survival was inactive: 108%.
The same measure for `CCOc1ccc(C2c3[nH]c4ccccc4c3CCN2C(=O)CCc2ccccc2)cc1` (configuration not stated): inactive: 136%; for `CCOc1ccc(CCNC(=O)c2sc3nc4n(c(=O)c3c2C)CCCC4)cc1OCC`: inactive: 111%; for `CCOC(=O)c1ccc(NC(=O)CCn2c(=O)c3cccn3c3ccccc32)cc1`: inactive: 107%.
The same measure for `COc1cc(C(=O)NCCCc2nc3ccccc3n2CC(C)C)cc(OC)c1OC`: inactive: 67%; for `O=C(C1CCN(S(=O)(=O)c2ccc(Br)s2)CC1)N1CCN(c2cccc(Cl)c2)CC1`: inactive: 88%; for `Cc1ccc(Sc2c(C)nn(C(=O)COc3ccccc3Br)c2C)cc1`: inactive: 90%.
The value for `NC(=O)c1c(NC(=O)c2nc(SCc3ccccc3F)ncc2Cl)sc2c1CCCC2` was inactive: 92%; that for `CCOC(=O)c1c(NC(=O)c2ccc(S(=O)(=O)N3CCC(C)CC3)cc2)sc2c1CCN(C)C2` was inactive: 132%.
For `Cc1ccc2[nH]c(CSc3nnc(NC(=O)COc4ccccc4)s3)cc(=O)c2c1`, the survival is inactive: 105%.
Take `O=C(Nc1nc2ccc(S(=O)(=O)N3CCCC3)cc2s1)c1cccc(F)c1`: the survival was inactive: 63%.
The value for `CCOC(=O)c1sc2ncn(CC(=O)Nc3ccc(N(C)C)cc3)c(=O)c2c1C` was inactive: 89%.
The same measure for `Cc1cc(C)cc(-n2ccnc2SCC(=O)Nc2nnc(C)s2)c1`: inactive: 77%.
As for `CC(=O)Nc1ccc(C(=O)CSc2nnnn2C(C)C)cc1`, the survival was inactive: 111%.
Take `CCN1CCN(CCC(=O)Nc2ccc(OC)cc2)CC1`: the survival is inactive: 107%.
The same measure for `CCOc1ccc2nc(N3CCCC(C(=O)Nc4c(C)cccc4C)C3)sc2c1` (configuration not stated): inactive: 82%.
The same measure for `COc1ccc(OC)c(CNC(=O)c2nn(-c3ccc(OC)c(Cl)c3)c(=O)c3c2c2ccccc2n3C)c1`: inactive: 134%; for `O=C(O)CCNC(=O)c1ccc(Br)o1`: inactive: 102%; for `CCS(=O)(=O)N1CCc2cc(C(=O)Nc3ccc(OC)c(Cl)c3)ccc21`: inactive: 83%.
Consider `CCCCn1cc(S(=O)(=O)c2ccc(C)c(C)c2)c(=O)c2cc(F)c(N3CCCC(C)C3)cc21` (configuration not stated), for which the survival is inactive: 68%.
The value for `COc1ccc(CCNC(=O)CCCn2c(=O)c3ccccc3n(Cc3cccc(Cl)c3)c2=O)cc1OC` was inactive: 92%; that for `Cc1ccc(-c2nc3scc(CCNC(=O)Cc4ccc(Cl)cc4)n3n2)cc1` was inactive: 80%; that for `CCOc1ccc(N(C(=O)CC(C)C)S(=O)(=O)c2ccc3c(c2)oc(=O)n3C)cc1` was inactive: 85%.
As for `COc1ccc(CCNS(=O)(=O)c2ccc3c(c2)CC(C)N3C(=O)C2CCC2)cc1OC` (configuration not stated), the survival was inactive: 86%.
Consider `CCOc1ccc(CC(=O)NCCc2csc(-c3ccc(C)cc3)n2)cc1`, for which the survival is inactive: 72%.
Consider `O=C(/C=C/c1ccccc1)N1CCN(CCN2C(=O)C3C4C=CC(C4)C3C2=O)CC1` (configuration not stated), for which the survival was inactive: 124%.
`COc1ccc(S(=O)(=O)n2nc(C)c(S(=O)(=O)N3CCC(C)CC3)c2C)cc1C`: the survival is inactive: 57%.
The same measure for `CCC(=O)Nc1c(C(=O)N2CCN(c3ccc(F)cc3)CC2)oc2ccccc12`: inactive: 82%; for `CCCn1c(SCc2nc(-c3ccc(OC)cc3OC)no2)nnc1-c1ccc(Cl)cc1`: inactive: 88%; for `Cc1cccc(C)c1NC(=O)CSc1nc(-c2ccccc2)nc2c1Cc1c(CO)cnc(C)c1O2`: inactive: 88%.
The value for `CCC1CN(C(=O)N2CCC(C(=O)NCCc3ccc(Cl)cc3)CC2)c2ccccc2O1` (configuration not stated) was inactive: 79%; that for `O=C1NCCN(Cc2ccc(F)cc2)C1=O` was inactive: 51%.
In the case of `CCN(CC)c1ccc(NS(=O)(=O)c2ccc(-c3cnc(C4CC4)o3)cc2)c(C)c1`, the survival is inactive: 77%.
The same measure for `Cn1c(SCc2ccc(F)cc2)nc2ccc(C(=O)NCc3ccc(Cl)cc3)cc21`: inactive: 83%; for `COc1ccc(-c2noc(CN(C(=O)COc3cc(C)c(Br)c(C)c3)C(C)C)n2)cc1`: active: 7%; for `COc1ccc(NC(=O)Cn2nnc(C(=O)Nc3ccc(F)c(Cl)c3)c2N)cc1OC`: inactive: 32%.
The value for `Cc1ccc(NC(=O)Cn2cc(C(=O)C3CC3)c3ccccc32)cc1` was inactive: 162%.
On to `COC(=O)c1scc(-c2ccc(C)cc2)c1S(=O)(=O)Nc1cc(Cl)ccc1C`, for which the survival is inactive: 75%.
Turning to `Cn1c(=O)c(=O)n(C)c2cc(N3CCOCC3)c(NS(=O)(=O)c3ccc(Cl)cc3)cc21`, the survival is active: -3%.
As to `Cc1nn(Cc2ccc(F)cc2)c(C)c1NC(=O)c1cc(CC(C)C)on1`, the survival is inactive: 72%.
The value for `CCOC(=O)c1[nH]c2c(c1Cc1ccccc1)C(=O)CC(c1ccc(Cl)cc1)C2` (configuration not stated) was inactive: 93%.
Take `CCc1ccc(S(=O)(=O)c2cn(CC(=O)Nc3ccc(C)cc3)c3ccccc3c2=O)cc1`: the survival was inactive: 78%.
On to `N#C/C(=C/c1ccc(N2CCCCC2)o1)C(=O)NCCc1c[nH]c2ccccc12`, for which the survival was inactive: 128%.
The same measure for `CCOc1ccccc1NC(=O)c1sc2nc3n(c(=O)c2c1C)CCCCC3`: inactive: 87%; for `COCCOC(=O)c1c(C)n(S(=O)(=O)c2ccc(C)cc2)c2ccc(NS(=O)(=O)c3ccc(C)cc3)cc12`: inactive: 86%.
The value for `Cc1ccc(CNC(=O)c2ccc3nc(N4CCCCC4)sc3c2)cc1` was inactive: 73%.
The same measure for `COc1cccc(C(c2sc3nc(-c4ccco4)nn3c2O)N2CCC(O)CC2)c1` (configuration not stated): inactive: 128%; for `CCOC(=O)c1ccc(NC(=O)c2c(NC(C)=O)sc3c2CCC(C)C3)cc1` (configuration not stated): inactive: 54%.
On to `CCOc1ccc(CCNC(=O)c2ccc3c(Cl)c4c(nc3c2)CCCC4)cc1`, for which the survival is inactive: 71%.
For the compound `O=S(=O)(NCCc1nnc2ccc(SCc3ccc(Cl)cc3Cl)nn12)c1ccccc1`, the survival was inactive: 62%.
`Cc1cc(C)cc(NC(=O)CSc2nc3c(oc4ccccc43)c(=O)n2-c2ccccc2F)c1`: the survival was inactive: 102%.
Consider `COc1ccc2cc3cc(C(=O)NCc4ccc(C)cc4)oc3nc2c1`, for which the survival was inactive: 89%.
With `COc1ccc(OC)c(CCNC(=O)c2ccc3c(c2)N(Cc2ccc(C)cc2)CCS3)c1`, the survival is inactive: 80%.
The same measure for `CCc1cccc(OCC(=O)Nc2ccc(S(=O)(=O)Nc3cc(C)nc(C)n3)cc2)c1`: inactive: 94%; for `COc1ccc(Nc2cc(C(=O)NCCc3ccc(C)cc3)c3ccccc3n2)c(OC)c1`: inactive: 81%.
Consider `O=c1[nH]n(CC2COC3(CCCCC3)O2)c(=O)c2ccccc12` (configuration not stated), for which the survival is inactive: 105%.
For `Cc1ccc(-c2nnc(Nc3ccc(O)cc3)c3ccccc23)cc1S(=O)(=O)N1CCN(C)CC1`, the survival was inactive: 70%.
Regarding `COc1cccc(C(=O)COc2cccc(NC(=O)c3ccco3)c2)c1`, the survival is inactive: 113%.
In the case of `CCOCCCNC(=O)C1CCN(c2nn3cc(-c4ccc(F)cc4)nc3s2)CC1`, the survival was inactive: 75%.
The same measure for `CCCCOc1ccc(C(=O)Nc2nnc3n2CCS3)cc1`: inactive: 95%.
The same measure for `CCOC(=O)N1CCC(NC(=O)c2c(C)nn(-c3ccc(C)cc3)c2-n2cccc2)CC1`: inactive: 65%; for `CCOc1ccc(-c2nn(CC(=O)NC3CCCCC3)c3c2cnc2ccc(C)cc23)cc1`: inactive: 94%.

The record behind these values is PubChem BioAssay AID463173 (ICCB-Longwood Screening Facility, Harvard Medical School, 2010).
